Read counts are not given, so values of variants with three or more changes are uncertain.
B1: OR4K15 (parent)
chain: GUUAACGGUCAUAGGCCAUGGAAACUAGGAGCACCAUUUCGCUGCCAGUGAAGAAAUGAACAAAGAAAAUCUGGGCCAGGCAGGCAUCAAAAGAAAUAGUCUUGCGCUCAACCAGAAAGUCUGUAAUCAUUUUAAGGGUA

Variants of: B1
Assay: self-cleavage, relative activity (ratio to wild type); higher = more cleavage; in vitro, sequencing; the parent is a self-cleaving ribozyme

Variant | self-cleavage
A36U A47G A89G | 1.51
A64G A68G A78G U102C A111U | 0.02
A86G U131C U132A | 0.8
A47U A62U U87C A92G | 0.98
A59G A96G A118G | 0.63
U2C A30G A118G | 1.04
U9A U39A U132C | 1.02
A51G A54G G115U U139C | 0.14
A24G A56G A134U | 0.64
A54G A56G A91G U122C A126G U132C | 0.9
A13G A89G C101U A126G | 0.08
A18G A47U A116G | 0.49
U38C A60G A118G U132A | 0.48
A56G U127C U130C U132C | 1.25
U43C A51G A64G U127C U131A | 1.42
A22U U49C A98G | 0.54
A33G U103A A111G | 0.02
A5G A47U U102C | 1.21
U2C A36U U57A A68G G73A | 0.22
U19C U72C A94G U102C | 0.16
A54G A78U A91G A111U U120C | 0.01
A33G A82U U87C A94G U124A U133G A135U G137A | 0.42
A23G A36G U132C | 1.02
A30U G65U A94U U103C U108C U139C | 0.01

Variant | self-cleavage
U9A A11G A78U | 0.26
U39C U43A G48A A52U A63G A66G | 1.56
G74U U100C U108C | 0
A55U A62U A95G | 0.74
A33G A98G U120C A129G | 0.03
U57C A62G A66G | 1.15
G104A U122G U133C | 0.05
A51G U57C U70C | 0.57
A23G G74C A129G | 0.13
A11G U49C A62G A94G U97C U122C A126G | 0.37
U72C A94G U103C | 0.11
A5G A23G A55G | 1.17
A30G A47G A51G U124C | 1.12
A82G U120C A129G | 0.21
A22G A62G A68G A92G U124C | 0.87
A51G A95G A110G U130C | 0.37
A13G A51G A110G | 0.26
U12C U38A A86G U131A | 0.32
U9C A47U U57C A68U A98U | 1.23
U2C A4G U72C | 0.32
U19A A62G A111U U124C U132C | 0.02
G21A G73C A82G U87C | 0.12
U37C A60G C71U A89U | 0.32
A54U A56U A89G | 0.98

Variant | self-cleavage
A47G A94G U97A A111G | 0.02
U102C A118G U127C U131C | 1.56
A52G A60G U97C | 1.64
A23U U70C G79A A94G | 0.13
A59G U97C A98U A118G | 0.14
A56G A96G A118G | 1.01
A67G A82U A94U | 0.18
A47G A56G U103A U122C | 0.12
C6U A59G A67G U130C | 1.34
U38A A59G U103C | 1
G1A A5G U9C A111G | 0.08
A91G A95C A135U A140G | 1.03
U70G U100C U122A | 2.63
A126G U127C U132C | 0.22
U12C A69G A96G | 1.58
A5G A18U U127C U133C | 0.54
A51G A68U U139C | 1.19
A5U A24G C46U A89G A111C | 0.04
C16U A94U A117G A140U | 1.83
A22G A27G U38C A89G A95G A118U | 1.02
U9C A18U A23G A126G | 0.61
C46U A52G U100C | 1.53
U12C U39C A82G U139G | 0.97
A64U U100C A114U | 0.12

Variant | self-cleavage
U19C A22G A60G | 1.13
U37C A56G A64G | 1.07
G15A A68G U70C A82U A91G | 0.13
A33G A52G A55G A66G C107U A111G U122C | 0
A67G U120C U124A | 0.78
A51U U108A A114G | 0.01
A36U A68G U102A | 0.89
C42U A98G U120C | 0.26
A56G A59U A62G U72C | 0.23
U43C A59G U100C U102C | 2.15
A18C A56U A67G U108C U124C | 0.01
A11G G14A A52G A126G | 0.33
A55G A63G U124A | 0.61
A62U A96G U139A | 1.62
A66G A69G C85U | 1.42
G75C U102C U103A | 0.01
A91G A117G U130C | 0.65
U9A A11U A126G | 0.77
A33G A36U U38C A54G A56G A60C A135G | 0.96
U43A A59U U124C | 0.16
A33G A54G A114G | 0.01
G7A A18U U120C U124C | 0.22
A59G U87C A111G U139C | 0.03
A11U A13U U19C A47U | 1.34

Variant | self-cleavage
C46A A62G A69G A86G U102C A110G | 0.11
A95G A98G A129G | 1.66
A11G U26A U72A U103G A110G | 0.05
A51G U87C U124C A125G | 0.27
U39C A60G U120C | 0.98
A27U A33G A67G A94G A95G A98G | 2.73
A24G U39C U72C U87A | 0.32
A110G U122C U130C | 0.08
A54G U70C A90G | 0.1
U70C U122C A126G | 0.44
A4G U43C U131C | 0.34
U19C U26C A86U A94G U120A | 2.83
U37C U43C A135U | 1.52
A5G U49C A60G U108C A116G U127C A134G | 0.02
C34U A63G U132C U139C | 2.5
A23G A36U A60G A82G | 0.38
G31U C40U U57C A60G A90G A116G A129G | 0.12
A47G U72C G84U U122A | 0.13
U37C U57C A62U A82G A118G | 0.14
U26C G73A C81U A117G U132C | 0.21
U37A U72C U122G U132C | 0.33
U37C A111U A118G G138A | 0.13
A22G A24G U38A U70C U100C A114U | 0.26
A18G A59G A95G A111G | 0.08

Variant | self-cleavage
A27U U49C A94G | 1.45
U57C A64G A82G | 0.26
U2C A22G U72A U108A | 0.01
A82G G83U A117G U130A | 0.07
U38C A116G U133C | 1.58
A59G C81G U102C A134G | 0.29
A63U G106A U131A | 0.01
A54G A89G A117G | 2.31
A36G U72A A91U | 0.38
A94G U102C A129G | 2.5
A68U U72C A78U A95G | 0.12
A67G U100A A110G U133C | 0.21
A22G A52G A56G | 0.17
U2C A51G A54G A56C A82G A91G A129G | 0.03
C40A A59G A111G U127C | 0.01
A30G A60U A92G U97A A116G U131C A135G | 0.34
A5U A11G A47G U49C A56G A95G | 0.75
G8A A54G U120C A129G | 0.4
U2A U3C G20U G53U A54G A66G C85U A90G A117G | 0.07
G14U U19C U37C A52G | 1.21
U38C A51G A52G | 0.94
U43A A59G A62G A64G | 2.84
U2C A13G G41A A55U A95G | 1.16
U9C U37C A90G | 1.8

Variant | self-cleavage
A64G U70C U87C C105U A110G | 0.01
A23G U37C A78U U131C | 0.37
U12A U87C A92G A135C | 1.65
A5G U43A A59G A94G | 1.08
U9C U38A U87C U108C C113U | 0.02
A22U A110G A111G | 0.02
U2C U100C A129G | 1.17
U43C A59G A62G A67G A89G C101U A126G | 0
U9G A125G U132A | 0.39
A23G C42U A82U U108C U122G | 0.01
A90G A91G U97C | 0.91
A4G G83A U108G | 0.02
U2C U26C U39A A68G | 0.95
A52U A59G A62G U87C | 0.93
U9A A51G A52U U72A A117G | 0.45
A60G A64G U72C U97G | 0.18
U12A U43A U102C | 1.44
U9A U19C A67G U103C U122C | 0.14
C45U A98G U122C A125G | 0.14
U43A A54G A55G A64G | 1.3
U19C A22G C46A A52U A94G | 1.3
U57C U87C A91G | 0.36
A4U A78G U103C | 0.23

Reference: the RNAGym collection of RNA variant scans (doi:10.7554/elife.90254)
